{"source": "PubChem BioAssay AID624171", "about": "(National Center for Advancing Translational Sciences (NCATS), 2012)", "note": "Hit rate of the full screen: of about 410,000 compounds, about 1,200 (0.29%) were called active. Inconclusive means that the source gave no clear call. Such entries were picked first, then a sample of the others. Calls follow the shape of the dose curve; as a rule, active = well fitted activation curve with a large enough effect; inconclusive = small, poorly fitted or top-dose-only effect; inactive = flat fitted curve, though single readings scatter. Where the call is inconclusive, the potency comes from a doubtful curve fit. Potency is read from the fitted curve at half-maximal effect; tags tell the direction and shape of the fitted curve.", "data": [{"assay": "qHTS of Nrf2 Activators; also: nearly all actives have a fitted effect of over 65% in size; as to activation: % of control where 0% means no effect", "conditions": "AREc32 ARE-luciferase reporter (MCF7-derived line), luminescence, 24 h; series mostly up to 46.1 µM; activation: at the top concentration", "source_text": "Many diseases have some form of oxidative stress injury and ties to inflammation, causing a host of problems for the patient. The antioxidant response element (ARE) plays an important role in alleviating the harmful effects of oxidative stress. The antioxidant response element (ARE) is a transcriptional regulatory element involved in the activation of genes coding for a number of antioxidant proteins and detoxifying enzymes. These enzymes work in concert to protect tissues from oxidative insults and chemical toxicities in human hepatocytes and immune cells. The protective effects of ARE activation are primarily triggered through Nrf2 (NF-E2-related factor) binding to and activating AREs. It is known that Nrf2 controls the production of over 250 antioxidant and detoxification proteins (Hu et al., 2006), thereby protecting tissues by increasing cellular antioxidant content and suppressing inflammatory signaling pathways. The transcription factor Nrf2 is a central link between oxidative chemicals, such as phenolic antioxidants and electrophilic compounds, and the activation of ARE. Nrf2 levels are constitutively low as a consequence of its interaction with Keap1, which targets its degradation (Zipper and Mulcahy, 2002). Electrophiles react with key cysteine residues in Keap1, releasing Nrf2 and allowing its translocation to the nucleus. Once within the nucleus, Nrf2 complexes with coactivators such as p300, and binds to the AREs to induce gene transcription of cytoprotective enzymes, resulting in the prevention of toxicity. Activation of Nrf2 protects tissues by increasing cellular antioxidant content and suppressing inflammatory signaling pathways. Identifying novel and potent Nrf2 activators by using the AREc32 cell line to detect ARE activation by small molecules will lead to the identification and development of probes to study protective pathways in multiple tissues. These specific probes are essential to study the ARE pathway, and eventually to determine whether this pathway does activate genes that could protect against a host of diseases, including cardiovascular diseases, obesity, diabetes, Alzheimer's, and Parkinson's disease.\nThis project's aim is to identify novel and potent Nrf2 activators by using the AREc32 cell line to detect ARE activation by small molecules, which will lead to the identification and development of probes to study the ARE pathway.\nNIH Chemical Genomics Center [NCGC]\nNIH Molecular Libraries Probe Centers Network [MLPCN]\nAssay Submitter (PI): Curtis Klaassen, University of Kansas Medical Center\n5 uL of 1000 cells/well of AREc32_Fluc cells are seeded into 1536-well plate in OPTI-MEM medium with 5% FBS. The plates are incubated overnight at 37 deg C with 5% CO2. Then through pin tool transfer, 23 nL of compounds are added to each well before a 24 hr incubation at 37 deg C with 5% CO2. After the addition of 2.5 uL of Steady-Glo. the plates are kept at RT for 30 min, before they are read on the ViewLux.", "values": [{"smiles": "CCCCCCn1c(=O)c(C(=O)Nc2ncccc2C)c(O)c2ccccc21", "activation": "inactive: 2.92%"}, {"smiles": "C[C@]12CCC3C(CC[C@H]4C[C@@H](O)CC[C@]34C)[C@H]1C=CC2=O", "note": "(some centres not stated)", "Potency": "active: 22.4 µM"}, {"smiles": "CN1C(=O)/C(=C\\c2ccc(N3CCCCCC3)cc2)C(=O)NC1=S", "activation": "inactive: -0.694%"}, {"smiles": "O=[As](O)(O)c1ccc(N=Nc2ccc(O)cc2)cc1", "activation": "inactive: 0.615%"}, {"smiles": "COc1ccc(/C=C/C=C2C(=O)NC(=S)NC2=O)cc1", "activation": "inactive: 3.46%"}, {"smiles": "C=C(C=O)CC1CC(O)[C@]2(C)OC3CC4OC5C[C@]6(C)O[C@]7(C)CCC8OC9C[C@]%10(C)OC%11C(C)=CC(=O)OC%11CC%10OC9C[C@@H](C)C8OC7CC6O[C@]5(C)CC5OC5C4OC3CC2O1", "note": "(some centres not stated)", "Potency": "inconclusive: 0.562 µM [activator, full curve, poor fit]"}, {"smiles": "CCOCN(C(=O)CCl)c1c(C)cccc1CC", "Potency": "inconclusive: 25.1 µM [activator, partial curve, poor fit]"}, {"smiles": "O=C(Nc1ccccc1C(=O)N/N=C/c1ccco1)c1ccccc1Cl", "Potency": "inconclusive: 11.2 µM [activator, partial curve, poor fit]"}, {"smiles": "C[C@]12CCC(=O)C=C1C=CC1C2CC[C@]2(C)C(=O)CCC12", "note": "(some centres not stated)", "activation": "inactive: 0.464%"}, {"smiles": "O=C(NC1(C(F)(F)F)Oc2ccc(Cl)cc2O1)N1CCC2(CC1)OCCO2", "note": "(configuration not stated)", "Potency": "inconclusive: 31.6 µM [activator, single point]"}, {"smiles": "CN1CCC(O)(c2ccccc2)C(C(=O)c2ccccc2)C1", "note": "(configuration not stated)", "Potency": "inconclusive: 31.6 µM [activator, single point]"}, {"smiles": "Cc1ccccc1-[n+]1c(-c2ccccc2)cc(-c2ccccc2)cc1-c1ccccc1", "activation": "inactive: -1.14%"}, {"smiles": "C=CCn1c(O)c(Cc2ccc(OCC)cc2)c(=O)[nH]c1=O", "activation": "inactive: -0.454%"}, {"smiles": "CCOC(=O)c1c(NS(=O)(=O)c2ccccc2)n(CCCOC)c2nc3ccccc3nc12", "Potency": "inconclusive: 22.4 µM [activator, single point]"}, {"smiles": "Cc1ccc(NS(=O)(=O)c2c(F)cc(F)c(Cl)c2F)cc1S(=O)(=O)N1CCOCC1", "Potency": "inconclusive: 22.4 µM [activator, single point]"}, {"smiles": "CCN(CCO)c1ccc(N=Cc2c(O)n(C)c(=S)[nH]c2=O)cc1", "Potency": "inconclusive: 22.4 µM [activator, single point]"}, {"smiles": "Oc1ccccc1O", "Potency": "inconclusive: 35.5 µM [activator, single point]"}, {"smiles": "CC12CC[C@H]3[C@@H](CCC4(O)C[C@H](O)CCC34/C=N/NC(=O)c3ccccc3Cl)C1(O)CCC2C1=CC(=O)OC1", "note": "(some centres not stated)", "activation": "inactive: 0.212%"}, {"smiles": "CC1OC(OC2C(O)CC(OC3C(O)CC(OC4CCC5(C)C(CCC6C5CCC5(C)C(C7=CC(=O)OC7)C(O)CC65O)C4)OC3C)OC2C)CC(O)C1O", "note": "(configuration not stated)", "activation": "inactive: 0.357%"}, {"smiles": "Cc1nc(Cl)sc1C(=O)Nc1ccc2ccccc2c1", "Potency": "inconclusive: 17.8 µM [activator, single point]"}, {"smiles": "CNCCc1c[nH]c2ccc(O)cc12", "activation": "inactive: 0.247%"}, {"smiles": "Cn1cc([N+](=O)[O-])c(C(=O)Nc2ccc3c(C(F)(F)F)cc(=O)oc3c2)n1", "Potency": "inconclusive: 22.4 µM [activator, single point]"}, {"smiles": "ClCCNc1nc2ccc(Cl)cc2[nH]1", "Potency": "inconclusive: 20 µM [activator, single point]"}, {"smiles": "COc1ccc(-n2c(O)c(/C=C3\\C=Nc4ccc(Br)cc43)c(=O)[nH]c2=O)c(OC)c1", "Potency": "inconclusive: 35.5 µM [activator, single point]"}, {"smiles": "CC(C)N1C(=O)/C(=C/C=C/c2ccco2)C(=O)N(Cc2ccco2)C1=O", "Potency": "inconclusive: 31.6 µM [activator, single point]"}, {"smiles": "C=C1C(=O)O[C@H]2[C@H]1[C@H](OC(=O)CC(=O)O[C@@H]1C[C@@H](C)[C@@H]3C=CC(=O)[C@@]3(C)[C@H]3OC(=O)C(=C)[C@H]13)C[C@@H](C)[C@H]1C=CC(=O)[C@]12C", "Potency": "inconclusive: 20 µM [activator, single point]"}, {"smiles": "Cc1cccc(-c2nn3c(=O)cc(CN4CCN(C(=O)COc5ccc(Cl)cc5)CC4)nc3s2)c1", "Potency": "inconclusive: 0.562 µM [activator, full curve, poor fit]"}, {"smiles": "Fc1cccc(F)c1-c1nc(-c2ccc(Cl)cc2)no1", "Potency": "inconclusive: 2.82 µM [activator, full curve, poor fit]"}, {"smiles": "O=c1oc2ccccc2n1CSC1=NCCS1", "Potency": "inconclusive: 15.8 µM [activator, single point]"}, {"smiles": "C/C(=C\\c1ccc(N(C)C)cc1)[N+](=O)[O-]", "Potency": "inconclusive: 5.62 µM [activator, single point]"}, {"smiles": "COc1cc(/C=C/c2nc3ccccc3c(=O)n2-c2ccccc2O)ccc1O", "Potency": "inconclusive: 31.6 µM [activator, single point]"}, {"smiles": "COc1ccc([N+](=O)[O-])cc1CSc1ccccn1", "Potency": "active: 11.2 µM"}, {"smiles": "CN(C)C(=O)Oc1ccc(C(=O)c2ccccc2)cc1", "activation": "inactive: 2.4%"}, {"smiles": "CCC(=NCc1ccc2c(c1)OCO2)c1c(O)n(C2CCCCC2)c(=O)[nH]c1=O", "activation": "inactive: 1.12%"}, {"smiles": "O=P(Nc1ccccc1)(Nc1ccccc1)Oc1cccc(Cl)c1", "activation": "inactive: -0.314%"}, {"smiles": "BrCC1C[n+]2c(SCc3ccccc3)nc3sc4c(c3c2O1)CCCC4", "note": "(configuration not stated)", "Potency": "inconclusive: 15.8 µM [activator, single point]"}, {"smiles": "CNC(=O)c1cccn(Cc2ccc(C(F)(F)F)cc2)c1=O", "Potency": "inconclusive: 15.8 µM [activator, single point]"}, {"smiles": "CC(=O)OC1CCC2(C)C(CCC3C2CC(=O)C2(C)C3CC(N3CC3)C2C(C)=O)C1", "note": "(configuration not stated)", "Potency": "inconclusive: 22.4 µM [activator, single point]"}, {"smiles": "O=c1[nH]c(=S)n(C2CC2)c(O)c1/C=N/Nc1ccccc1", "Potency": "inconclusive: 17.8 µM [activator, partial curve, poor fit]"}, {"smiles": "CCN(CC)S(=O)(=O)c1cc(NC(=O)C(C)N2CC=C(c3ccccc3)CC2)ccc1C", "note": "(configuration not stated)", "activation": "inactive: 2.65%"}, {"smiles": "O=c1[nH]c(=O)n(-c2ccccc2)c(O)c1N=Nc1ccc(Br)cc1", "Potency": "inconclusive: 22.4 µM [activator, single point]"}, {"smiles": "CCOc1ccc(N2C(=O)NC(=O)/C(=C\\c3ccccc3[N+](=O)[O-])C2=O)cc1", "activation": "inactive: 0.113%"}, {"smiles": "Cc1cc(NC(=O)CCl)nn1C", "Potency": "inconclusive: 22.4 µM [activator, single point]"}, {"smiles": "CNC(=O)Oc1cccc(-c2cn3cc(Cl)ccc3n2)c1", "Potency": "inconclusive: 3.16 µM [activator, single point]"}, {"smiles": "C#C[C@]1(O)CC[C@H]2[C@@H]3CCC4=Cc5nc6nc7ccccc7n6cc5C[C@]4(C)[C@H]3CC[C@@]21C", "Potency": "inconclusive: 22.4 µM [activator, single point]"}, {"smiles": "Cc1ccc(N/N=C/C=C/c2ccco2)cc1", "Potency": "inconclusive: 12.6 µM [activator, partial curve]"}, {"smiles": "Oc1ccccc1-[n+]1c(-c2ccccc2)cc(-c2ccccc2)cc1-c1ccccc1", "activation": "inactive: 5.34%"}, {"smiles": "C=CCNc1nnc(Sc2ncccc2[N+](=O)[O-])s1", "Potency": "inconclusive: 22.4 µM [activator, single point]"}, {"smiles": "CC(Cc1ccccc1)NCCC(=O)NC(C)Cc1ccccc1", "note": "(configuration not stated)", "activation": "inactive: -0.294%"}, {"smiles": "Cc1cc(/C=C2\\C(=O)NC(=O)N(c3cccc(Br)c3)C2=O)c(C)n1C", "activation": "inactive: -0.67%"}, {"smiles": "O=c1c2ccccc2nc(/C=C/c2ccco2)n1-c1ccccc1O", "Potency": "inconclusive: 15.8 µM [activator, single point]"}, {"smiles": "O=C(c1cc2c(s1)-c1ccccc1OC2)N1CCC2(CC1)OCCO2", "activation": "inactive: 3.23%"}, {"smiles": "O=C(/C=C/c1ccccc1)c1c(O)n(CCc2ccccc2)c(=O)[nH]c1=O", "Potency": "active: 8.91 µM"}, {"smiles": "O=[N+]([O-])c1ccc(CNCCc2ccccc2)cc1", "activation": "inactive: 0.0111%"}, {"smiles": "O=C(N/N=C/c1cccc([N+](=O)[O-])c1)c1cnccn1", "Potency": "inconclusive: 11.2 µM [activator, partial curve, poor fit]"}, {"smiles": "CC(C)[C@@]1(NC(=O)[C@@H]2C[C@@H]3c4cccc5[nH]cc(c45)C[C@H]3N(C)C2)O[C@@]2(O)[C@@H]3CCCN3C(=O)[C@H](Cc3ccccc3)N2C1=O", "activation": "inactive: 0.0912%"}, {"smiles": "CC1CCOC(=O)C=CC=CC(=O)OC2CC3OC4C5OC5(C)C(O)CC4(COC(=O)C1O)C2(C)C31CO1", "note": "(configuration not stated)", "activation": "inactive: -1.74%"}, {"smiles": "CC(C)CCNC(=O)c1c(N)n(CC2CCCO2)c2nc3ccccc3nc12", "note": "(configuration not stated)", "activation": "inactive: -1.56%"}, {"smiles": "Cc1ccc(N=Nc2c(O)[nH]c(=O)[nH]c2=O)c([N+](=O)[O-])c1", "Potency": "inconclusive: 22.4 µM [activator, single point]"}, {"smiles": "N#CC1=C(N)Oc2n[nH]c(-c3cccs3)c2C1c1ccsc1", "note": "(configuration not stated)", "Potency": "inconclusive: 35.5 µM [activator, single point]"}, {"smiles": "CCCCN1CCS(=O)(=O)N(Cc2ccccc2Br)CC(C(=O)OC)C1", "note": "(configuration not stated)", "Potency": "inconclusive: 31.6 µM [activator, single point]"}, {"smiles": "C[C@]12C=CC(=O)C=C1C=C[C@@H]1C2CC[C@]2(C)C(=O)CCC12", "note": "(some centres not stated)", "Potency": "inconclusive: 25.1 µM [activator, single point]"}, {"smiles": "O=C(O)CC/C(=C\\c1cc([N+](=O)[O-])ccc1Cl)c1nc2ccccc2s1", "Potency": "inconclusive: 17.8 µM [activator, partial curve, poor fit]"}, {"smiles": "O=C1NC(=S)NC(=O)C1=Cc1cccc2cc3ccccc3cc12", "Potency": "inconclusive: 25.1 µM [activator, single point]"}, {"smiles": "Cc1ccc(N2C(=O)NC(=O)/C(=C\\C=C\\c3ccco3)C2=O)cc1C", "Potency": "inconclusive: 28.2 µM [activator, single point]"}, {"smiles": "Cc1cc(C)cc(N2C(=O)NC(=O)/C(=C\\c3cccn3-c3ccccc3)C2=O)c1", "Potency": "inconclusive: 22.4 µM [activator, single point]"}, {"smiles": "Cc1nnc(NC(=O)c2cccn(Cc3cccc([N+](=O)[O-])c3)c2=O)s1", "activation": "inactive: -0.43%"}]}]}
